# According to paper PMC4336329 (PLoS ONE, 2015):
# Among all 310,000 compounds or so, about 14,000 (4.5%) showed an effect of 50% or more. Effects have a minus sign here. This is one part of the list.
# Target: human ether-à-go-go-related gene (hERG) potassium channel (human, UniProt Q12809)
# Test: primary screen, population patch clamp on CHO cells stably expressing hERG
# 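Also: peak tail current of the secondary pulse compared with the same well before compound.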
# human ether-à-go-go-related gene (hERG) potassium channel, sequence (Q12809 whole entry, looked up): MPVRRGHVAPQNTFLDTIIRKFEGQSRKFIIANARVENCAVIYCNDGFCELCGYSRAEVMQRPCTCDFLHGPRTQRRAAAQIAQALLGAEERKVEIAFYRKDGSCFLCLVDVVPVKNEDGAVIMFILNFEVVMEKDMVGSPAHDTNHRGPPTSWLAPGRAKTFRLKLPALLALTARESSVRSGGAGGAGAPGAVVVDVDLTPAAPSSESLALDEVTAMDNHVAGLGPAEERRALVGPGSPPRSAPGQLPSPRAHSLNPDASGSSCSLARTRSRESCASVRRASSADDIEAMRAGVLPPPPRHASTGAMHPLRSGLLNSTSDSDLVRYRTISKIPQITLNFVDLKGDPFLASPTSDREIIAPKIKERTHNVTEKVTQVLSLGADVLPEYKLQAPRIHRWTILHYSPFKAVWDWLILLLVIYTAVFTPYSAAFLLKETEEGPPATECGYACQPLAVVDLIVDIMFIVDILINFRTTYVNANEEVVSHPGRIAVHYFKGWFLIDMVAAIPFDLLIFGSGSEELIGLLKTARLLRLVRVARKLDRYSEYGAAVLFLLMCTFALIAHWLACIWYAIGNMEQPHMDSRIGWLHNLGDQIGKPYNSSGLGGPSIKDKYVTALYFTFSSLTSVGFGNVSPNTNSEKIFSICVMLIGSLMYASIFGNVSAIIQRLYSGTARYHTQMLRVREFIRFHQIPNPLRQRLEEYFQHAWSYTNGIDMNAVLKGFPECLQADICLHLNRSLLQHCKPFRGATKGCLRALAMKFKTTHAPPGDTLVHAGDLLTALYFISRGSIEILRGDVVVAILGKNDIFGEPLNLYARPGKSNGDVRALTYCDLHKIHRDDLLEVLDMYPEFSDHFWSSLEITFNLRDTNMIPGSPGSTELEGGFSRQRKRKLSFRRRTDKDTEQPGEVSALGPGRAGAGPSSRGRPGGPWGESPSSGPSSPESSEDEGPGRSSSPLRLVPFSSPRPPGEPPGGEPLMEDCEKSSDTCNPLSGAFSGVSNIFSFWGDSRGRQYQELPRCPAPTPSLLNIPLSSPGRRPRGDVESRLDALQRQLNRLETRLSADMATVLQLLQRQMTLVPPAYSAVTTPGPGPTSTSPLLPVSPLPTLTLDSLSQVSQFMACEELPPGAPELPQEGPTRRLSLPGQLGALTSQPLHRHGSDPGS
row,Structure (SMILES),"hERG current change (%, negative = inhibition) at 10uM"
1,COc1cccc(C(=O)NNC(=O)CCc2ccccc2)c1,8.13%
2,Cc1cccc(N2CCN(CC(=O)Nc3nccs3)CC2)c1C,-45.3%
3,CCOc1ccc(CCNC(=O)COC(=O)c2ccc(Br)o2)cc1OCC,7.98%
4,COc1ccc2[nH]c3c(c2c1)CCC/C3=N\N,12.8%
5,Cc1ccc(CCS(=O)(=O)c2ccc(C(C)(C)C)cc2)cn1,17%
6,CCOc1ccccc1-n1c(SCC(=O)NC2CCCC2)nnc1-c1ccoc1C,-24%
7,Cn1cc(CN2CCCC(C(=O)Nc3cccc(-n4cccn4)c3)C2)cn1 (centres unmarked),-5.79%
8,CN1C(=O)C(CCC(=O)O)NC1=S (centres unmarked),0.141%
9,CCOC(=O)c1cn(CC(=O)Nc2ccc(C(C)C)cc2)nn1,4.62%
10,O=C1C(Cl)=C(N2CCCC2)C(=O)N1c1ccccc1F,13.8%
11,CC1CCN(C(=O)CCc2ccc(S(=O)(=O)NC(C)(C)C)cc2)CC1,-5.31%
12,Cc1cccc(-n2ncc3c2CCCC3NC(=O)C2(C(N)=O)CC2)c1C (centres unmarked),7.42%
13,COc1cc(/C=C(\C#N)C(=O)NC(C)C)ccc1OCc1ccc(C(=O)O)cc1,7.22%
14,O=C(c1ccc2c(c1)OCO2)N1CCCc2ccccc21,7.07%
15,O=C(Cn1cnc2cc(Cl)ccc2c1=O)Nc1ccc2c(c1)OCO2,-3.18%
16,CC(C)(C)OC(=O)NNc1c2ccccc2nc2ccccc12,-27.7%
17,COc1ccc(N2CC(C(=O)Nc3cccc(C)n3)CC2=O)cc1 (centres unmarked),11.9%
18,COc1ccc(-c2cc(=O)oc3cc(OCc4nn[nH]n4)ccc23)cc1,11.5%
19,O=[N+]([O-])c1cccc(O)c1,19%
20,COc1cccc(OCC(O)CN2CCc3ccccc3C2)c1.Cl (centres unmarked),-71.1%
21,CCOC(=O)N1CCN(CCC(=O)Nc2ccc(Br)cc2)CC1,-33.2%
22,CCCCn1nc(C(=O)N[C@@H](CCSC)c2nc3ccccc3[nH]2)c2ccccc2c1=O,-28.7%
23,Cc1c(N=C/C=C2/N(C)c3ccccc3C2(C)C)c(=O)n(-c2ccccc2)n1C,-38.1%
24,Cc1ccc(C(=O)NCC(c2ccco2)N2CCc3ccccc32)cc1C (centres unmarked),-60.1%
25,O=C(CCCn1cnc2ccccc2c1=O)Nc1ccccc1F,-2.21%
26,CC(=O)Nc1ccc(NC(=O)C(C)OC(=O)CSc2ccc(Br)cc2C)cc1 (centres unmarked),19.8%
